Out of some 310,000 compounds screened, about 14,000 (4.5%) showed an effect of 50% or more. The effect is printed as a negative number. Some of the results follow.
target: human ether-à-go-go-related gene (hERG) potassium channel (human, UniProt Q12809); test: primary screen, population patch clamp on CHO cells stably expressing hERG
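Also: peak tail current of the secondary pulse compared with the same well before compound.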

Sequence of human ether-à-go-go-related gene (hERG) potassium channel (Q12809 whole entry, looked up): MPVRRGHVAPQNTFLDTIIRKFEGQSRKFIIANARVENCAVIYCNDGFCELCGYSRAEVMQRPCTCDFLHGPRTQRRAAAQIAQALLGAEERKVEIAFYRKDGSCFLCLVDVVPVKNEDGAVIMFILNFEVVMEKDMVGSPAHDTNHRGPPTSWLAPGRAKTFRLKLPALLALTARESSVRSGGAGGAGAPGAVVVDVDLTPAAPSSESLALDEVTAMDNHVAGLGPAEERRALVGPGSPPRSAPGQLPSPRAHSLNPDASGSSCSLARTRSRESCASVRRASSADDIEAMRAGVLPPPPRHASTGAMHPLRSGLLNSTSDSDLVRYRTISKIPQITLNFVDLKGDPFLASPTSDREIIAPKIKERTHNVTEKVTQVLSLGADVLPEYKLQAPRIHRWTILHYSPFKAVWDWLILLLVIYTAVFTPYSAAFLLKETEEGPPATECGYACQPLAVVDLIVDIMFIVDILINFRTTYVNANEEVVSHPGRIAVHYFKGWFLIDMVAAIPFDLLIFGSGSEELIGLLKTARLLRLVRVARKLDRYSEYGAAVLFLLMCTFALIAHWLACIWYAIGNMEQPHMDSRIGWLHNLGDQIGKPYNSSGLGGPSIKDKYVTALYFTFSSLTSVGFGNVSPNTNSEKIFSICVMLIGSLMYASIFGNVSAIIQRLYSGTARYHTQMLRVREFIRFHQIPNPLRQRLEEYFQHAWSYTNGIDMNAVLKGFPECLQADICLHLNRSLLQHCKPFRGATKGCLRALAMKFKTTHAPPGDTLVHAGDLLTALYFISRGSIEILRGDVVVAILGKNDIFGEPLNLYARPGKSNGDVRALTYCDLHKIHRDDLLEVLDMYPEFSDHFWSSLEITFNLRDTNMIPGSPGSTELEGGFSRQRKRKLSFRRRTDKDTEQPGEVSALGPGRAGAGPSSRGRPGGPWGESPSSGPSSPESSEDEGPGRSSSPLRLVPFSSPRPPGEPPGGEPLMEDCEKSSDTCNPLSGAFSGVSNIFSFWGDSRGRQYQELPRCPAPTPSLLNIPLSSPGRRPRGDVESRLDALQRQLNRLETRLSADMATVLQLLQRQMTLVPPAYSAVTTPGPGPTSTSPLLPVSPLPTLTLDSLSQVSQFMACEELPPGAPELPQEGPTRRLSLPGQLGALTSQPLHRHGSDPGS

SMILES | hERG current change (%, negative = inhibition) at 10uM [%]
N#Cc1c(NC(=O)c2ccco2)sc2c1CCC2 | -1.6
Fc1ccc(C2CCCN2Cc2nc(Cc3ccccc3)no2)cc1 (stereo not shown) | -15.2
O=C(Oc1c(-c2ccccc2)oc2ccccc2c1=O)c1ccccc1 | -2.91
O=C(COC(=O)C1C2CC3OC(=O)C1C3C2)Nc1cccc(Cl)c1 (stereo not shown) | -15.4
Cc1ccc(CN(C(=O)c2csnn2)C(C(=O)NC2CCCC2)c2ccco2)cc1 (stereo not shown) | -28.3
Nc1nc2c(ncn2[C@H]2C[C@H](O)[C@@H](CO)O2)c(=O)[nH]1.O | 12.7
O=C(Nc1nnc(C2=COCCO2)o1)c1cccc(F)c1 | 16.7
O=C(Nc1ccccc1N1CCOCC1)C1CCCCN1S(=O)(=O)c1ccccc1 (stereo not shown) | -20.8
Cc1ccc2cc(CNCCc3ccccc3C)c(=O)[nH]c2c1 | -69.7
Cc1ccc(-n2nc(C)c3c(C)c(CCC(=O)Nc4ccc(CN5CCCC5)cc4)c(C)nc32)cc1 | -60.2
O=C(O)c1ccc(CN2CCOCC2)o1 | 11.5
CN(/C=C/c1c([N+](=O)[O-])c(=O)n(C)c(=O)n1C)c1ccccc1 | -18.7
CN1CCc2c(sc(NC(=O)c3ccc4ccccc4c3)c2C(N)=O)C1.Cl | -5.05
Cc1ccc(S(=O)(=O)N(CC(=O)NCc2ccco2)c2ccccc2C)cc1 | -8.75
CC(C)c1ccc(C2CC(=O)N3CN(Cc4ccco4)CSC3=C2C#N)cc1 (stereo not shown) | 14.5
COc1ccc(-n2cc(CN3CCCC3)c(-c3cccc(F)c3)n2)cc1 | -57
c1ccc(-c2noc(CN3CCOCC3)n2)cc1 | 29
CCCNC(=O)Nc1cc(S(=O)(=O)CC)ccc1O | 11.9
Nc1ccc(Oc2ccccc2F)nc1 | 11.9
CCOc1ccc(N2C(=O)CC(C(C)c3ccccc3)C2=O)cc1 (stereo not shown) | -11.6
COC(=O)COc1ccc(/C=N/NC(=O)c2ccc(N(Cc3ccccc3)S(C)(=O)=O)cc2)cc1 | 0.0151
CN(CC(=O)Nc1ccc(F)cc1)C(=O)CSc1ncccn1 | 14.3

SMILES | hERG current change (%, negative = inhibition) at 10uM [%]
COc1ccc(S(=O)(=O)N2CN3CCN(C3)C2)cc1OC | 7.42
CS(=O)(=O)c1nc(S(=O)(=O)c2ccc(Cl)cc2)c(NCCCn2ccnc2)s1 | -25.8
O=C(CN1C(=O)NC2(CCCc3ccccc32)C1=O)N1CCN(c2cccc(C(F)(F)F)c2)CC1 (stereo not shown) | -9.03
Cc1nnc(SCC(=O)Nc2cccc(C(F)(F)F)c2)n1Cc1ccco1 | -31.4
CC(C)(CO)NCc1cc(Br)ccc1OCc1ccccc1.Cl | -35.5
CSc1ccccc1NC(=O)Cn1c(-c2cscn2)nc2ccccc21 | -23.8
O=C(Nc1cccc(S(=O)(=O)N2CCCCCC2)c1)c1ccc2ccccc2n1 | -2.91
Cc1ccccc1COc1ccc2oc(C)c(C(=O)O)c2c1 | 14.9
CC(=N\Nc1ccc(Cl)cc1)/C(=N/O)C(=O)Nc1ccccc1 | -0.969
CCC1=C([N+](=O)[O-])C(c2ccc3c(c2)OCO3)NC(=O)N1 (stereo not shown) | 16
COc1ccc(-n2c(=O)[nH]cc(C(=O)Nc3ccccc3)c2=O)cc1 | 4.33
Cc1cc(C)n(CC(=O)N2CCCC(C(=O)c3cccc(OC(C)C)c3)C2)n1 (stereo not shown) | -20.1
Cc1cccc(N(Cc2ccccc2F)S(C)(=O)=O)c1 | 3.07
COc1ccc(C)cc1NC(=O)CN(c1ccccc1F)S(C)(=O)=O | -5.63
O=S(=O)(c1ccc(F)c2ccccc12)N1CCCCC1 | 0.38
CCN1CCN(S(=O)(=O)c2ccc(Oc3ccccc3OC)cc2)CC1 | -15
CCSCCOC(=O)C1=C(C)NC(=O)NC1c1ccc2c(c1)OCO2 (stereo not shown) | -13.4
Cc1ccc(CSCCNC(=O)CN(c2cccc([N+](=O)[O-])c2)S(C)(=O)=O)cc1 | -53.2
COc1cccc(NC(=O)CN(C)CC(=O)Nc2ccc(C)cc2Cl)c1 | -15.4
Cc1nn(-c2ccccc2)c(C)c1/C=N/O | 3.41
COc1ccc(-n2c(-c3ccccc3[N+](=O)[O-])nc3ccccc3c2=O)cc1 | -68.7

From publication PMC4336329 (PLoS ONE, 2015)
